# Hit rate of the full screen: of about 220,000 compounds, about 16,000 (7.3%) were called active. The inconclusive results got no clear call from the source; some entries with a clear call stand among them for comparison. The call rests on the fitted dose curve; in most records, active means well fitted inhibition curve with a large enough effect (not every such curve was filed as active); inconclusive means small, poorly fitted or top-dose-only effect, or another doubt; inactive means no such curve, though single readings can be large or run the other way. No potency is given beside an inconclusive call; the fits are too rough.
# Target: Aldehyde dehydrogenase 1A1 (Homo sapiens) (UniProt P00352)
# Test: qHTS Assay for Inhibitors of Aldehyde Dehydrogenase 1 (ALDH1A1);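 on activity, negative = inhibition: plate controls were no enzyme wells and a reference inhibitor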
# Conditions: Purified ALDH1A1, NADH fluorescence, propionaldehyde substrate; series mostly up to 75.3 µM
# Potency means the concentration at half of the fitted maximal effect; tags describe the fitted curve by direction and shape.
# Sequence of UniProt P00352 (P00352 whole entry, looked up): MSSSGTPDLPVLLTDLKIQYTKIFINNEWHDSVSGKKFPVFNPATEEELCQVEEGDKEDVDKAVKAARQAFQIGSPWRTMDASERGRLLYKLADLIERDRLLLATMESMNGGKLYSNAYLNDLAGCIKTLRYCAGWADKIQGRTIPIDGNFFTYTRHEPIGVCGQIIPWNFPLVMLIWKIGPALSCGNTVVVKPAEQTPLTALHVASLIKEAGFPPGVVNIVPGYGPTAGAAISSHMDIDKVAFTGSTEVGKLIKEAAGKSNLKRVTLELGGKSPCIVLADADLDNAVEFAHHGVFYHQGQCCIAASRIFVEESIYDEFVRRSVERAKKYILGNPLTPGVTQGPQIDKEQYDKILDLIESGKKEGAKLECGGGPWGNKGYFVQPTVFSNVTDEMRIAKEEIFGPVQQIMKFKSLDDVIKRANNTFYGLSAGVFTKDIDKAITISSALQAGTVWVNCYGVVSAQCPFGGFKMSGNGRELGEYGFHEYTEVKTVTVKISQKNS
SMILES,Potency,"activity, negative = inhibition"
CC(C)CC(=O)Nc1ccc(C(=O)Cn2c(=O)oc3ccccc32)cc1,inactive,
CC(=O)c1ccc2c(c1)c1ccccc1n2CC(C)C,"inconclusive [inhibitor, partial curve]",
CC(C)CN(CC(C)C)C(=O)CCCC(=O)N(CC(C)C)CC(C)C,inactive,
COc1ccc(N2CCN(C(=O)c3ccc(COc4ccc5c(C)cc(=O)oc5c4)cc3)CC2)cc1,"inconclusive [inhibitor, partial curve]",
CN(C)c1ccc(Cl)cc1N,inactive,
COc1ccc(Oc2nc(SC)nc3ccccc23)cc1,"inconclusive [inhibitor, single point]",
Cc1nc2cc(N=NC3=C(O)CCCC3=O)ccc2s1,"inconclusive [inhibitor, single point]",
Cc1cccc(C(=O)Oc2csc(=S)n2C(=O)c2cccc(C)c2)c1,active: 8.91 µM,
COc1ccc2[nH]c3c(=O)n(/N=C/[C@H]4C(C)C=C(C)CC4C)c(=O)[nH]c3c2c1 (stereo partly drawn),"inconclusive [inhibitor, partial curve]",
Cc1nnc(NC(=O)c2sc3nc(-c4cccs4)cc(C(F)(F)F)c3c2N)s1,inactive,
Cc1ccc(C)c(NC(=O)c2oc(=O)c3ccccc3c2-c2ccccc2)c1,"inconclusive [inhibitor, single point]",
O=C(Nc1c2c(nc3ccccc13)CCCC2)c1ccccc1Cl,inactive,
Cc1cccc2cc3ccc4ccccc4c3cc12,"inconclusive [inhibitor, partial curve]",
CCc1cccc2c(C(=S)N3CCOCC3)c[nH]c12,inactive,
Nc1ccc(N)c(Cl)c1,active: 22.4 µM,
C/C(=N\NC(=O)c1ccc(N/N=C(\C)c2ccc(O)cc2)cc1)c1ccc(O)cc1,"inconclusive [inhibitor, partial curve]",
O=C(NCc1ccco1)c1ccc2nc3sc4c(c3c(=O)n2c1)CCCC4,"inconclusive [inhibitor, partial curve]",
Cc1c(NC(=O)/C=C/C(=O)O)cccc1[N+](=O)[O-],active: 25.1 µM,
CNC(=O)c1ccccc1NC(=O)c1cccc(S(=O)(=O)N2CCCCC2)c1,"inconclusive [inhibitor, full curve, poor fit]",
CCOC(=O)c1cnn(-c2ccccc2)c1N,"inconclusive [inhibitor, single point]",
CCOC(=O)c1c(NC(=O)CSc2nnc(C)s2)sc2c1CCCCC2,"inconclusive [inhibitor, partial curve]",
COc1cccc(C2CC(c3ccccc3Cl)n3nnnc3N2)c1 (stereo not drawn),"inconclusive [inhibitor, single point]",
CCOC(=O)N1CCC(N2C(=O)c3ccccc3C2Nc2ccc(C)cc2)CC1 (stereo not drawn),active: 31.6 µM,
CNc1cccc2c1C(=O)c1ccccc1C2=O,inactive,
COc1ccc(-c2nc3c(c4c2C[C@H](c2ccccc2)OC4)CN(C(=O)NCCc2c[nH]c4ccccc24)CC3)c(C)c1,,inactive: 0.397% [at 13.5 µM]
c1coc(-c2ccnc3ncnn23)c1,"inconclusive [inhibitor, partial curve]",

SMILES,Potency,"activity, negative = inhibition"
O=C(NC(=S)N1CCN(c2ccc([N+](=O)[O-])cc2)CC1)c1ccccc1Cl,"inconclusive [inhibitor, single point]",
O=S(=O)(Cc1ccccc1)/C1=C(\N2CCOCC2)CCCCCC1,active: 12.6 µM,
O=C(CCCN1C(=O)C2C3C=CC(C3)C2C1=O)N1CCN(c2ccccc2)CC1 (stereo not drawn),active: 12.6 µM,
O=C(N/N=C/c1ccc(N2CCCCC2)o1)c1ccccc1[N+](=O)[O-],"inconclusive [inhibitor, single point]",
CCOC(=O)COc1cc(-n2c(=S)[nH]c3cc(OC)c(OC)cc3c2=O)c(Cl)cc1Cl,inactive,
CCCn1c(=O)c2ccccc2n2c(SCC(=O)Nc3cc(C)on3)nnc12,"inconclusive [inhibitor, single point]",
CCN(CC)CCCC(C)n1c(-c2ccccc2)nc2c(NCc3ccccc3)nc(C)nc21 (stereo not drawn),"inconclusive [inhibitor, single point]",
O=C(NCCc1ccc(Cl)cc1)c1cccs1,inactive,
O=C(Nc1nnc(CCOCCOCCc2nnc(NC(=O)c3ccco3)s2)s1)c1ccco1,"inconclusive [inhibitor, single point]",
O=C(COC(=O)c1ccc[nH]c1=O)NC1CCCC1,inactive,
CC1CN(c2nnc(NC(=O)c3ccccc3)s2)CC(C)O1 (stereo not drawn),"inconclusive [inhibitor, single point]",
Cc1cc(C(=O)CN2C(=O)NC3(CCCCC3C)C2=O)c(C)n1Cc1cccs1 (stereo not drawn),"inconclusive [inhibitor, single point]",
C/C(=N/Nc1ncc(C(F)(F)F)cc1Cl)c1ccncc1,active: 39.8 µM,
Fc1ccccc1N1CCN(Cc2cnc(Cl)s2)CC1,inactive,
CC(C)Oc1ccc(C(=O)NC(=S)Nc2ccc(CN3CCOCC3)cc2)cc1,active: 7.08 µM,
C=CCN1C(=O)C(C)(C)Nc2ccccc21,inactive,
CC(=O)c1cc(F)ccc1OCC(=O)N1CCN(c2ccc(F)cc2)CC1,active: 25.1 µM,
Cn1nnnc1SCCNCC#Cc1ccccc1,"inconclusive [inhibitor, single point]",
CC(=O)Nc1ccc(S(=O)(=O)NCc2ccc(C(=O)NCCN3CCCCCC3)cc2)cc1,inactive,
CN(C)c1ccc(C(CNC(=O)c2ccc(C#N)cc2)c2c[nH]c3ccccc23)cc1 (stereo not drawn),active: 14.1 µM,
O=C(CN1CCCCC1)N=Nc1c(O)[nH]c2ccccc12,active: 12.6 µM,
CCOc1ccccc1CN1CCN(C/C=C/c2ccc(OC)cc2)CC1CCO (stereo not drawn),"inconclusive [inhibitor, single point]",
COc1ccc(C(=O)Nc2ccccc2C(=O)N/N=C/c2cccc3ccccc23)cc1,"inconclusive [inhibitor, single point]",
CC(C)=CCN1CCN(CC#Cc2ccccc2)CC1CCO (stereo not drawn),"inconclusive [inhibitor, single point]",
O=C1c2cccnc2C(Nc2ccc(F)c(Cl)c2)N1Cc1cccs1 (stereo not drawn),active: 11.2 µM,
Cc1cccc(C(=O)Nc2ccc3c(c2)C(=O)N(CC(C)C)C3=O)c1,active: 2.82 µM,

SMILES,Potency,"activity, negative = inhibition"
COc1ccc(S(=O)(=O)NCCOc2ccccc2)cc1C,inactive,
CCc1ccc(NC(=S)Nn2cnnc2)cc1,active: 1.41 µM,
COC(=O)Nc1ccc(S(=O)(=O)N2c3ccccc3CCC2C)cc1 (stereo not drawn),inactive,
COc1ccc2cc3cc(C(=O)NCc4ccco4)oc3nc2c1,"inconclusive [inhibitor, partial curve]",
Cc1nnc(SC2CC(=O)N(c3ccccc3)C2=O)s1 (stereo not drawn),active: 0.708 µM,
Cc1cccc(N2CCN(C(=O)CCCn3c(=S)[nH]c4cc5c(cc4c3=O)OCO5)CC2)c1C,"inconclusive [inhibitor, partial curve, poor fit]",
CC(=O)c1ccc(N2CCN(C(=O)c3ccc(Br)cc3)CC2)c(F)c1,active: 10 µM,
CC(C)(C)NC(=O)c1ccccc1-c1nc(-c2ccccc2Cl)no1,"inconclusive [inhibitor, single point]",
CCOc1ccc(N(Cc2cc3cc(OC)ccc3[nH]c2=O)S(C)(=O)=O)cc1,"inconclusive [inhibitor, single point]",
O=C(CSc1nc2ccccc2c(=O)n1CC1CCCO1)NCc1ccc2c(c1)OCO2 (stereo not drawn),"inconclusive [inhibitor, single point]",
N#Cc1cccn1-c1nccc(-c2cccs2)n1,"inconclusive [inhibitor, single point]",
Cn1c(CN2CCOCC2)nnc1SCc1ccc(C#N)cc1,inactive,
CC(C)c1ccc2occ(-c3nn[nH]n3)c(=O)c2c1,inactive,
COc1ccc(CC(=O)Nc2ccc(-c3cn4ccccc4n3)cc2)cc1OC,"inconclusive [inhibitor, partial curve]",
CC1(OC(=O)C2CCCC2)C(=O)C=C2C=C(c3ccsc3)N(CCc3c[nH]c4ccccc34)C=C2C1=O (stereo not drawn),"inconclusive [inhibitor, full curve]",
COc1cc(NC(=O)COC(=O)c2nc3nc(C)cc(C)n3n2)cc(OC)c1,inactive,
Cc1cccc[n+]1CC(=O)Nc1cccc([N+](=O)[O-])c1,inactive,
O=C(COC(=O)CCSc1ccccc1)NCc1ccccc1,inactive,
Cc1ccc(CNC(=O)CCS(=O)(=O)c2ccc(Br)cc2)cc1,inactive,
CCOC(=O)N1CCC(c2cc(=O)n(-c3ccccc3)[nH]2)CC1,"inconclusive [inhibitor, full curve, poor fit]",
CCOC(=O)Cc1csc(NC(=O)COc2ccc(C)cc2)n1,inactive,
COc1ncnc2c1N=C1CC(C)(C)CC(N)=C1S2,"inconclusive [inhibitor, single point]",
C=CCNc1cc(N2CCCC2)ccc1[N+](=O)[O-],inactive,
Cn1ncc(Cl)c1C(=O)NC(=S)Nc1sc2c(c1C#N)CCCCC2,"inconclusive [inhibitor, full curve]",
CCNc1ncc2nc(C)c(=O)n(Cc3cccc(OC)c3)c2n1,"inconclusive [inhibitor, partial curve]",
COC(=O)c1c(NC(=O)C2COc3ccccc3O2)sc2c1CCN(C(C)=O)C2 (stereo not drawn),active: 31.6 µM,

# Reference: PubChem BioAssay AID1030 (National Center for Advancing Translational Sciences (NCATS), 2008)
